# Measured values taken from publication PMC10726135.
# The list shows a part of the results. At the low end of the ranking the order means little. Measured with an extract: partners may take part in the binding.
# Target: T1, HNF4alpha8 (COS-7 nuclear extract) (UniProt P41235-5)
# T1 sequence: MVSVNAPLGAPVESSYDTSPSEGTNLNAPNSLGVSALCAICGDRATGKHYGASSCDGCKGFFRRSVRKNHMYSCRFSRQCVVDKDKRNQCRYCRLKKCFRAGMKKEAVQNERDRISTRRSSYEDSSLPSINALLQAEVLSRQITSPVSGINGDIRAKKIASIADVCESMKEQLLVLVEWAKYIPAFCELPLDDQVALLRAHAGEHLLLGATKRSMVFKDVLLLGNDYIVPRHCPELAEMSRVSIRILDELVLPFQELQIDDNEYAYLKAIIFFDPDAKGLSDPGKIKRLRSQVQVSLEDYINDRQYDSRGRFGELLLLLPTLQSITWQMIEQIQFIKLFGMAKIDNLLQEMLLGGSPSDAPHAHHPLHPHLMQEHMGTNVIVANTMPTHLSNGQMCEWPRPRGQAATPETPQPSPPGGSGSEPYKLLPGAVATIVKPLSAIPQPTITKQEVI
# Test: protein-binding microarray
# Conditions: COS-7 nuclear extract on double-stranded Agilent 4x180k PBM; binding buffer, salt, pH and temperature not given; high values mean tight binding; double strand, one strand shown; sequences stand for … in …GCCTAGGGAGATTAGAGTATCGGTCGA
row,Sequence,binding signal (log2 normalized intensity)
1,GCTTCTGCCCCAGACACGCTTGACTGGCTC,-1.28
2,ACTCACTAGCATTAGGACCTGTTTGTCTTG,1.03
3,TCTATTCTATCTGTATTCTGAAGCCCTACA,-0.992
4,ATGATACAGCCTTTTGCCCCCAGGCTGCAA,3.59
5,TTATCATTACTTCTCAACTGATATGGCTCT,0.393
6,CAGCGTGAACTTTGACATGAGAGAAAAGAA,3.5
7,AACTGGTTCTGTGGAATTTGTGCTTATTTC,2.15
8,CATGTGCCAGATATGCCGAGAATGCAGCCT,-1.39
9,TGATGTTCCCCCTCCCTGGACTCCTGGGAC,4.43
10,GTTTTCCCATTCATGACATTGATTTATTGT,1.07
11,GTGAGAATCCCAGCTCGTGGGCATGCCTCC,-1.37
12,GGGCCACGCCCTGCACCCTACGTAAATGCA,-1.23
13,CACAAACATCACCTACCTGACTCCTTAGGG,-1.36
14,ACTGGCCCATTAGAACAAAGATCAAAGCAG,-1.37
15,GGCGCGGGATCCTCTTTCCTGCAGGCCCAT,-1.28
16,GGTATCAGAGTGGAGCCAGATGCACACAGG,-1.32
17,TGGTGGCACAGGGAATGGCTCGTATGAATG,-0.602
18,TTTGCAATGTAAACATCAAGGAAGAGAACT,-1.28
19,TTCTCCCCCGATAAGGCTGCCTCCTATCCT,3
20,AGAAACGCCTGGCGCTTATCTGAGCACACA,-1.37
21,AATGATATGGACAATGAAATTCAGGCTGAG,-1.35
22,CTTTCTCTCTCCCTTCCTGGAGCCAAGGTT,1.66
23,AAATTGATCTAGATAAGTTAGTTTACTTAG,-0.657
24,AACCCTGGCTGGAGTTGCTGAAATTCCCAC,-1.22

row,Sequence,binding signal (log2 normalized intensity)
1,CTCCATCCCTCATCTGTCATTCCCTCACTC,-1.17
2,TGTGGTTGACAGGCAACAATTTGAGGGGTC,2.22
3,CACTGGGCTGATGACCTTTGACTGAGATGG,5.81
4,TGGAACGGGGGCAAGGGTCAGAGTAAAGCT,4.21
5,ACTTTCCAGTCTAGGTCTGGAAGGAAGGAG,-1.25
6,GTAGGTACGTTTGTGATACACCTTGCCTGG,0.594
7,ATACAAGTCGTAAAGACCTTGCTGATTACA,-1.38
8,CAAGCCCTCTAACTATGCAGTGTCCATGGT,1.58
9,AGGGTTAAGCTCATGCTTTCATCTCCCCAA,1.87
10,CCGCGATTAAAAATGGAACAGTAAGTGTTA,0.151
11,TGTCAAAGGGAGAAAGACATGTTTCTAACT,-1.21
12,TCTGCTTGCAACCAAAGGAGTCCTGGCTGA,-1.35
13,GTCTGAGCACATCACACAGGCATATTTGGT,-0.288
14,ATTTGGACTTTTTGTAGTTTCAGCTTCTTC,1.53
15,GGTGGGCAGAGGCCTGATGGTGAGTTCTGT,0.175
16,TTGACCTTTATACCTGTACGTTACTCTGTA,4.37
17,CGGTGCATTTTTTTCCACCCTCCCCTCCCC,5.16
18,CTCAATCGCCTTTTATTTTTCCCCTGAAAT,2.8
19,GCTAGAGATTCTCCCTGGGGCCTCTGAAGT,-1.18
20,ACAGTGACGTTCTGCCCCTTATCTTCTGGC,2.22
21,TCCGAACGCCAGCAGCAGGGTCAGAAGGGA,-1.29
22,CCTCACAATCTTAAGATAAGGTCTTTCTGA,0.0701
23,GTCAGGCAGAGAGGGACTCTGACCCAGGAG,3.07
24,TGGCATTCCAGGATGAAGGAAGAGGGAAGA,-1.25

row,Sequence,binding signal (log2 normalized intensity)
1,TCTGTCCTGAGATGTCTGCTTCTTGGGTCA,2.5
2,CCATCCCCCAATACACACACACCCCTCCAC,6.37
3,GTCCAAGGACTCAATGATACCATCAGATAC,-1.36
4,CAGATGTTTCTGCAAGCACACTGTCCTGCT,-1.33
5,GAACTGAAAGAGACCTTTGACATCACCTAA,2.77
6,GATCGATCACACAGACAGACATTCAGAAAC,-0.921
7,GCTTGTCGAGGACAGGATGGGGGTGGGAGG,-1.29
8,CTAGGCAGCATAGGGCCACTTTGTCCTTCA,0.683
9,TCAGGAGAGGAGGCCCACACCCCTGGGGAA,-1.35
10,TCTCTTACCAGCTGGGGTTTTACCAGGCAC,0.0183
11,GACCCGTCAGCCCTGGTCCAGGCCATGCAA,-1.22
12,GATAACCCACCTCCGGCCGGGAAGATGCCA,-1.38
13,ATTAATTAAAGAACTGACAAGCAGTGACCA,1.5
14,AGGCCTTTATTTGCTTATAGCTCAAAGTCC,6.06
15,GTTAAAGACCTTTGGGTAGGAATAGAGCTC,0.581
16,GGGAGAATGATAAGATATATGACTCTAGAT,-0.791
17,CCCTAGTTTTTCTTCCGGTCACATACTCTG,1.42
18,GCAGAAAAACATATTTGCATAATGGAGCAA,-0.812
19,TACGTACAATCTAAAAATGTTGAACTCACA,2.29
20,GAGGCTGAAATGGTTACAAAGGTCACACTC,5.67
21,AATTCCCTGCAAGGACAAAGGTCATGTTTT,7.11
22,AAGGCTAGTCTTCTTTGGGGCTTAGATAGC,-0.856
23,CGACCACTGGCTGAACAGGGTCAGTGCAAT,1.54
24,TCCAAAGGTCAATGCCAGGACCCTGTGGGA,3.57

row,Sequence,binding signal (log2 normalized intensity)
1,CCCGCGCGTGGCCCAGCATGCCCCGCGCCG,-0.772
2,CCTAAGCCCCATGCTGATAAGGGCCACAGA,-0.943
3,CGGCTTGCGTCCCCAGGTGAACTCAGTCCT,1.24
4,GGTGGCAGCAGCAGGCAGGGACTTTGGCCC,6.19
5,GTGCAGGGGGCGAGCATGGCCGCTCCGCGA,-1.29
6,CCAAGATACCACTGATAAGGTTCCAGCAAA,-1.25
7,GACAAGAAAAGTAATGAAAGGAAATCATTC,-1.13
8,TTGAAACCTAAGATGTCACAGGCAAGCAAG,-1.31
9,TCTAAGCCCTTATCAAAAAGATAAGGACAC,-1.25
10,GGGAGGAGGGCAACCTTTGAACTGGGTCTT,4.84
11,AGGGGGCGGGCGGACTCCGAGCCATTTTGG,-1.34
12,TACGCTGTCGTTTGCTTAGTCTTATCTGAG,0.677
13,GTGTGGTGCAGATTCCACACTGGCTAGATA,-1.22
14,AAAGATACTCTCATCACTTAGGATATTCCA,-1.41
15,GACCTTTATGGGAAAAAAAAACCACTGTGT,0.594
16,ACCTGTTATTTGCGCCTCCCTAGAGCAGCA,-1.39
17,GTCTTGCTTTGATGTTGATGGTTGCTGACT,1.14
18,GATTTCATCTAAGGACAAACTTTGTCACTG,1.46
19,GAAACACTCTGTTTGTAAAGTCTACAAGTG,0.85
20,ATTTGAGGGTGACACTGCTCTCTCCAGGGG,-0.308
21,AGGCCGGAAAAGATTAGATTGCTCAGAGGC,-1.04
